Among all 200,000 compounds or so, about 4,500 (2.2%) were called active. This list was built around the results that the source calls inconclusive (neither active nor inactive); the mix of calls is not that of the screen. The call rests on the fitted dose curve; in most records, active means well fitted inhibition curve with a large enough effect; inconclusive means small, poorly fitted or top-dose-only effect, or effect the other way; inactive means flat fitted curve, though single readings scatter. Potencies beside an inconclusive call are fits to weak or partial responses and may not hold up.
biological target: Cruzipain (Trypanosoma cruzi) (UniProt P25779); assay: qHTS Assay for Promiscuous and Specific Inhibitors of Cruzain (without detergent); settings: purified cruzain, Z-FR-AMC fluorescence, no detergent; further: nearly all actives have a fitted effect of over 40% in size;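 on max response, negative = inhibition: plate controls were enzyme without inhibitor for no effect and buffer without enzyme for full effect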
Chain of UniProt P25779 (P25779 whole entry, looked up): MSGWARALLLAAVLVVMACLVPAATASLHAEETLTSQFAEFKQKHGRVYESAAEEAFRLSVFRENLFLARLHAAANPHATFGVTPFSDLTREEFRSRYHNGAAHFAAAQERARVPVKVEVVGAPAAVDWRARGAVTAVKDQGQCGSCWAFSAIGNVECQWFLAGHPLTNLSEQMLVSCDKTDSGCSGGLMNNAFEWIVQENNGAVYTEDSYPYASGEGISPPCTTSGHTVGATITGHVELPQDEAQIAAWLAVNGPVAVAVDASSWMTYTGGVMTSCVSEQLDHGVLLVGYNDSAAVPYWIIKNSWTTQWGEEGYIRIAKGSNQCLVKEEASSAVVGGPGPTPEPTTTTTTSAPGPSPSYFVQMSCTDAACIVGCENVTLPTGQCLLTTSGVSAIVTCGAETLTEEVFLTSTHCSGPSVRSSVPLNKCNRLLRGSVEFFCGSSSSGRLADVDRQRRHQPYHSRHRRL
How it was run: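 Detergent-free condition (0.00005% Triton X-100) in acetate buffer pH 5.5 with DTT. 1.5 nM enzyme and compound were pre-mixed 15 min, then 2 uM Z-FR-AMC substrate added; reaction progress from fluorescence change between first and third reads (60 s).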
Potency means the concentration at half of the fitted maximal effect; tags describe the fitted curve by direction and shape.

| SMILES | Potency | max response, negative = inhibition |
| --- | --- | --- |
| COc1cc(C(=O)Nc2sc3c(c2C#N)CCN(C(C)=O)C3)cc(OC)c1OC | inconclusive: 25.1 µM [activator, single point] | – |
| CCC1CCCCN1C(=O)CCCOc1ccccc1 (centres undefined) | inconclusive: 1.26 µM [inhibitor, single point] | – |
| Cc1cc(NC(=O)c2cc(-c3ccc(C)c(C)c3)nc3ccccc23)no1 | inconclusive: 25.1 µM [inhibitor, single point] | – |
| CCCCC(=O)Nc1nc(C)c(-c2csc(Nc3ccc(Cl)cc3)n2)s1 | active: 7.94 µM | – |
| COc1cc(=O)n(C)c2c(OC[C@@H](O)C(C)(C)O)cccc12 | – | inactive: -5.77% |
| Cc1nn(C(=O)c2cccs2)c(C)c1CN1C(=O)c2ccccc2C1=O | active: 20 µM | – |
| Cc1nn(-c2ccccc2)c2c1N(CCCC(=O)NCc1ccc(N(C)C)cc1)C(=O)CS2 | – | inactive: 16.7% |
| C=CCn1c(O)c(N=NC(=S)Nc2cccc(OC)c2)c2ccccc21 | inconclusive: 31.6 µM [inhibitor, single point] | – |
| CC(C)Oc1ccc(CNC(=O)CCCN2C(=O)CCn3nc(-c4cccn4C)cc32)cc1 | inconclusive: 39.8 µM [activator, single point] | – |
| COc1ccc2nc3oc(C(=O)N4CCN(c5cc(C)ccc5C)CC4)cc3cc2c1 | – | inactive: 1.1% |
| COc1ccc(CC(=O)Nc2sc3c(c2C(=O)Nc2cccc(Cl)c2)CCCCC3)cc1 | inconclusive: 39.8 µM [inhibitor, single point] | – |
| Cc1ccccc1CSc1nc2ccccc2c(=O)[nH]1 | inconclusive: 25.1 µM [inhibitor, single point] | – |
| COC(=O)CSc1ncc2c(n1)-c1ccccc1N(Cc1ccccc1C)S2(=O)=O | active: 12.6 µM | – |
| CCOc1ccc(N(C)C(=O)CS(=O)(=O)c2cccc3nsnc23)cc1 | – | inactive: -13% |
| O=C(Oc1ccc(-c2cnc3ccccc3n2)cc1)c1cccc([N+](=O)[O-])c1 | inconclusive: 39.8 µM [inhibitor, single point] | – |
| CCCCSc1nc(-c2ccc(OC)cc2)ccc1C#N | – | inactive: -4.26% |
| Cc1ccc(-c2nc(-c3cc4c([nH]c3=O)CC(C)(C)CC4=O)sc2C)cc1 | – | inactive: -2.36% |
| Cc1ccc2c(c1)c1c3n2CCN(C(=O)Cn2c(-c4ccccc4)noc2=O)C3CCC1 (centres undefined) | inconclusive: 39.8 µM [inhibitor, single point] | – |
| COC(=O)C1=CN(CCCN2CCCC2=O)C=C(C(=O)OC)C1c1ccccc1C(F)(F)F | inconclusive: 25.1 µM [activator, partial curve] | – |
| COCc1nnc(NC(=O)c2ccc(S(=O)(=O)N(C)C3CCCCC3)cc2)o1 | inconclusive: 31.6 µM [activator, single point] | – |
| CCC(CC)C(=O)Nc1cccc(S(=O)(=O)c2cccc(NC(=O)C(CC)CC)c2)c1 | inconclusive: 25.1 µM [activator, single point] | – |
| O=C(Cn1cc(SCc2ccc(C(F)(F)F)cc2)c2ccccc21)N1CCOCC1 | inconclusive: 39.8 µM [activator, single point] | – |
| CCSc1nc(N)c2c3c(sc2n1)CCC3 | inconclusive: 39.8 µM [inhibitor, single point] | – |

| SMILES | Potency | max response, negative = inhibition |
| --- | --- | --- |
| CC(=O)Nc1ccc(/C=C/c2nc(-c3ccccc3O)n(-c3ccccc3)n2)cc1 | inconclusive: 15.8 µM [activator, partial curve] | – |
| CC1CCN(S(=O)(=O)c2ccc(N=NC3=C(O)CC(C)(C)CC3=O)cc2)CC1 | inconclusive: 39.8 µM [inhibitor, single point] | – |
| CCCOc1ccc(-c2csc(NC(=O)CN3C(=O)CCC3=O)n2)cc1 | inconclusive: 31.6 µM [inhibitor, single point] | – |
| CC(=O)c1ccc(NC(=O)CN2C(=O)CCc3ccccc32)cc1 | – | inactive: -18.1% |
| Clc1ccc(CCNc2nc3ccccc3n3nnnc23)cc1 | active: 25.1 µM | – |
| COc1ccc(Oc2nc(C)cc(C)c2C#N)cc1 | – | inactive: -2.14% |
| Cc1ccc2occ(CC(=O)N(Cc3ccccc3Cl)C3CCS(=O)(=O)C3)c2c1 (centres undefined) | – | inactive: 6.69% |
| CC(C)CN=C(N)N=C(N)N | – | inactive: 2.03% |
| Cc1cccc(NC(=O)N2CCN(C)c3ncccc32)c1C | – | inactive: 2.65% |
| C=CCn1c(C)cc(C2=NNC(=NCC)SC2)c1C | inconclusive: 39.8 µM [inhibitor, single point] | – |
| CCN(CC)S(=O)(=O)c1ccc(NC(=O)c2ccc(N(C)S(C)(=O)=O)cc2)cc1 | inconclusive: 25.1 µM [activator, single point] | – |
| CCOc1ccc(C(=O)NCc2nc3cccnc3n2Cc2cccc(OC)c2)cc1 | – | inactive: 4.63% |
| Nc1cc(=O)[nH]c(SC/C=C/c2ccccc2)n1 | inconclusive: 39.8 µM [inhibitor, single point] | – |
| CCOc1ccccc1CNC(=O)c1ccc(NC(=O)N2CC(C)Sc3ccccc32)cc1 (centres undefined) | inconclusive: 39.8 µM [inhibitor, single point] | – |
| NCCc1nc(-c2nc(C(=O)O)cs2)cs1 | – | inactive: 3% |
| Cc1cccc(C(=O)c2c(N)sc3c2CCC(C)C3)c1 (centres undefined) | inconclusive: 15.8 µM [inhibitor, partial curve, poor fit] | – |
| CC1=Nn2c(nnc2-c2cc(-c3ccccc3)n[nH]2)SC1 | – | inactive: 6.08% |
| C/C(CC(=O)Nc1ccc(Cl)c(Cl)c1)=N\NC(N)=S | active: 0.316 µM | – |
| COc1cccc(/C=N/NC(=O)c2ccc(CN3c4cccc5cccc(c45)S3(=O)=O)cc2)c1 | active: 20 µM | – |
| Cc1cc(C)cc(-n2c(C)cc(C(=O)C(=O)Nc3nnc(C)s3)c2C)c1 | inconclusive: 31.6 µM [activator, single point] | – |
| Cc1cc(C)nc(SCc2nnc(SCC(=O)Nc3ccc(C)c(C)c3)o2)n1 | – | inactive: 3.95% |
| CN(C(=O)Cn1cnc2onc(-c3ccc(F)cc3)c2c1=O)c1ccccc1Cl | – | inactive: -3.82% |
| Cc1ccc(-n2c(=O)c3ccc(C(=O)NCc4ccco4)cc3n(CC(=O)Nc3ccccc3C(F)(F)F)c2=O)cc1 | – | inactive: -14.4% |

| SMILES | Potency | max response, negative = inhibition |
| --- | --- | --- |
| CCOc1cccc(C(=O)NC(=S)Nc2ccc(N3CCCC3)cc2)c1 | active: 31.6 µM | – |
| O=C(Cn1c(=O)oc2cc(S(=O)(=O)N3CCCCCC3)ccc21)Nc1ccc(F)cc1F | inconclusive: 25.1 µM [inhibitor, single point] | – |
| CCSCCNC(=O)c1cc(-n2cnnc2)ccc1Cl | – | inactive: 10.1% |
| O=C(CSc1nccn1C1CCCC1)Nc1cccc(F)c1 | – | inactive: -13.9% |
| CCCN(C(=O)Cn1ncc2c1-c1ccccc1OC2)c1cccc(C)c1 | – | inactive: 11.4% |
| N/C(=N\OC(=O)c1cc(-c2ccccc2)nc2ccccc12)c1ccc(Cl)cc1 | inconclusive: 31.6 µM [inhibitor, single point] | – |
| COc1ccc(CCNC(=O)CN(c2ccc(C)cc2)S(=O)(=O)c2c(C)noc2C)cc1OC | inconclusive: 39.8 µM [activator, single point] | – |
| Cc1cccc(NC(=O)CCN2CCN(c3ccccc3F)CC2)c1 | – | inactive: -10.3% |
| O=C(Nc1cccc(S(=O)(=O)NC2=NCCCCC2)c1)c1cc(-c2ccccc2)nc2ccccc12 | inconclusive: 39.8 µM [inhibitor, single point] | – |
| CCOC(=O)c1c(S(=O)(=O)NCC(=O)N2CCN(c3cc(C)ccc3C)CC2)c(C)n(C)c1C | inconclusive: 31.6 µM [activator, single point] | – |
| CCOC(=O)N1CCN(C(=O)c2cc(C)c3c(C)nn(-c4ccccc4)c3n2)CC1 | inconclusive: 31.6 µM [activator, single point] | – |
| CSc1nsc(/C=C/Nc2ccc(C)cc2)c1C#N | active: 3.16 µM | – |
| CC(NC(=O)COC(=O)CCc1ccc(S(=O)(=O)N2CCOCC2)cc1)C1CC2CCC1C2 (centres undefined) | inconclusive: 25.1 µM [activator, single point] | – |
| COc1c(O)cc2oc3cc(O)c(CC=C(C)C)c(O)c3c(=O)c2c1CC=C(C)C | inconclusive: 31.6 µM [inhibitor, partial curve, poor fit] | – |
| O=C(Nc1ncccn1)c1cc(-c2cccc(Br)c2)nc2ccccc12 | inconclusive: 31.6 µM [activator, partial curve] | – |
| CCOC(=O)C1(O)Oc2cc(OC)cc(OC)c2C(=O)C1c1ccccc1 (centres undefined) | – | inactive: -2.08% |
| CC(C)Cc1nnc(NC(=O)CCN2C(=O)c3ccccc3C2=O)s1 | inconclusive: 39.8 µM [inhibitor, single point] | – |
| O=C(N/N=C/c1coc2ccccc2c1=O)c1cn(-c2ccccc2)nc1-c1ccc(F)cc1 | inconclusive: 31.6 µM [inhibitor, single point] | – |
| COc1ccc(NC(=O)Cn2c(=O)n(Cc3ccc4c(c3)OCO4)c(=O)c3ccc(C(=O)NC4CCCCC4)cc32)cc1 | – | inactive: -20.4% |
| CCn1c(C)c(C)c2cc(C(=O)NCc3ccc(OC(C)C)cc3)ccc21 | – | inactive: -3.54% |
| COc1cc2c(C(=O)N3CCN(c4cccc(C(F)(F)F)c4)CC3)cn(CC(C)C)c(=O)c2cc1OC | inconclusive: 25.1 µM [activator, single point] | – |
| CC(C)c1ccc(CNc2nc(-c3ccco3)nn2C(=O)c2ccc([N+](=O)[O-])cc2)cc1 | – | inactive: -9.25% |
| CC(=O)Nc1ccc(NC(=O)C(C)OC(=O)C2(c3ccc(Cl)cc3)CCCC2)cc1 (centres undefined) | inconclusive: 39.8 µM [activator, single point] | – |

Reference: PubChem BioAssay AID1476 (National Center for Advancing Translational Sciences (NCATS), 2009)
